Test results from the supplement of paper PMC3334620.
Over roughly 33,000 sequences, “E-score (-0.5 to 0.5)” has its median near -0.043; the highest 2% begin near 0.37. The list shows a part of the results.

molecular target: T1, Upc2 (UniProt Q12151); assay: PBM E-score (8-mer binding enrichment) (E-score (-0.5 to 0.5)); higher = stronger / more preferred TF binding; most listed sequences are background and not binding sites; settings: protein concentration: 200 nM; construct: GST-full length
T1 sequence: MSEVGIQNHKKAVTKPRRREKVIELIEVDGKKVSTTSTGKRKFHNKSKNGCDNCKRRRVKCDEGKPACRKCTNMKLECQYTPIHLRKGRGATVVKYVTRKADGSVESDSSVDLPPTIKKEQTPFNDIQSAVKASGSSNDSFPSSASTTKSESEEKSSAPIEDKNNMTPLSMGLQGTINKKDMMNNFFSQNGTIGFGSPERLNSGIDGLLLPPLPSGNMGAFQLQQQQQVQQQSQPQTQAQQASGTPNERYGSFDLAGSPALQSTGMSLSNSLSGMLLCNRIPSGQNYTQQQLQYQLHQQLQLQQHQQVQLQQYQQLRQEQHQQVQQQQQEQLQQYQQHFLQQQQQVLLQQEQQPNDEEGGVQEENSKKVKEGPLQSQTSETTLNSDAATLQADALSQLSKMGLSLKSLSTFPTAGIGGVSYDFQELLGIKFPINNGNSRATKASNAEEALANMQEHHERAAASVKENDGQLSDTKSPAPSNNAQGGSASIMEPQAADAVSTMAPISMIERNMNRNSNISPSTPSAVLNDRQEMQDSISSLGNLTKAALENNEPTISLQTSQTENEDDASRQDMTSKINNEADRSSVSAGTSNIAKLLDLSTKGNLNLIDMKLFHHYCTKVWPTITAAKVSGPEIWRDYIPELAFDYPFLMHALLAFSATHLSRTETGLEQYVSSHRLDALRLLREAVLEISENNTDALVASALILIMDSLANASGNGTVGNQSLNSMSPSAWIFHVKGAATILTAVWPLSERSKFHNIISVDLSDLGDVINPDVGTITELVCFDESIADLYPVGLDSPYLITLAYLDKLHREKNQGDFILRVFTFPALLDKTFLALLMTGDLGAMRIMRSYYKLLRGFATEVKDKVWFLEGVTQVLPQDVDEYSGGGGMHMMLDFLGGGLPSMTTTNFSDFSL
How it was run: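 PURExpress in vitro transcription/translation supplied GST-tagged yeast transcription factors, either full-length or DNA-binding domain. Applied at about 100-200 nM to universal all-10-mer Agilent arrays double-stranded by primer extension, the bound protein was detected with fluorescent anti-GST. E-scores, modified Wilcoxon-Mann-Whitney statistics, were given by the Universal PBM Analysis Suite to ungapped eight-base words pooled with their reverse complements after masliner normalisation.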

Row | Sequence | PBM E-score
1 | GGTCGGTA | 0.221
2 | CGTCAAGC | -0.212
3 | GTCCGTGA | -0.105
4 | AGGACTAG | -0.0925
5 | GATGCACC | -0.224
6 | GATTGCCC | -0.0861
7 | CGTTTGTC | 0.34
8 | CTAACCAC | 0.0848
9 | ACTGCTTC | -0.0978
10 | AACTCGCG | 0.134
11 | CTAATACC | -0.0448
12 | GCCTACTA | 0.005
13 | ATTAGTTG | -0.0363
14 | ACTAGTCC | -0.332
15 | GGGTAAGA | -0.0544
16 | TACCATCA | -0.0383
17 | CGCTTTGA | 0.00704
18 | AGGGGACC | -0.239
19 | ATAATAAA | 0.0566
20 | TAGACTCA | -0.105
21 | ACTCGGTC | 0.0379
22 | GCGCAAGC | -0.0448
23 | ACGCTTAA | 0.135
24 | ACACCAGC | -0.111
25 | CGACGTAA | 0.218

Row | Sequence | PBM E-score
26 | GTCCCCGA | -0.228
27 | CGACTCAA | 0.197
28 | ACCGGTAT | -0.049
29 | CACAGCAA | 0.164
30 | ACTGCTAT | 0.0625
31 | CGGTAAAC | 0.206
32 | AAGGTGGA | -0.0852
33 | AATGGCGC | -0.0285
34 | ATCCTGAA | 0.109
35 | AGACATCG | -0.0296
36 | CGATTACA | 0.185
37 | ATGCCAAA | -0.128
38 | ATCGTAAA | 0.448
39 | GGCGTGTA | -0.0443
40 | CTGGGTGA | -0.138
41 | GCAACGCA | -0.149
42 | ACGTAGCT | 0.162
43 | GCAGCGCC | -0.0761
44 | CGGTGTCC | -0.00807
45 | ACTTTTTA | -0.00986
46 | AAGATAAC | -0.0856
47 | TGCCCTAA | -0.116
48 | AGCTGATA | 0.0372
49 | AAAAAGAC | -0.0486
50 | TCAGACGA | 0.171

Row | Sequence | PBM E-score
51 | CTAAGTAC | 0.152
52 | AAGAGGAC | -0.242
53 | CACATCAC | -0.144
54 | GCATAAAC | 0.232
55 | CACTAAGA | -0.1
56 | CGGGCCAA | -0.307
57 | ATCCTGTC | 0.125
58 | ATAGCTCA | -0.134
59 | AACATAGT | 0.0732
60 | GACATTGC | -0.342
61 | ATATTTAA | 0.14
62 | ATGGTCCC | -0.219
63 | CGGTACTC | 0.0294
64 | TCACCCGA | 0.00062
65 | AGAGCAAT | -0.0953
66 | AAGAGCGG | -0.0495
67 | CACCTTTC | -0.0421
68 | ACCTTCGG | 0.122
69 | CCATATTC | 0.124
70 | ATCAGCCC | -0.226
71 | CAATGTCC | -0.269
72 | CCCCACCC | 0.0563
73 | CCCTACGC | -0.209
74 | CTTCAGAA | -0.0849
75 | GCCTGAAC | -0.15

Row | Sequence | PBM E-score
76 | GGGCCACC | -0.16
77 | GTGTTTCA | -0.0708
78 | AAAGGAAA | 0.118
79 | ATGTAACA | -0.0483
80 | CTCGGCGA | 0.126
81 | GCTATAAC | -0.153
82 | AGGAAGGC | -0.0345
83 | GATCCTCC | -0.157
84 | ACTCTAAT | -0.125
85 | GCAGCAAA | -0.0889
86 | ACTCCAAC | -0.199
87 | CGGGGGGC | 0.063
88 | GGGCCCAA | -0.193
89 | CACGTGTC | -0.0686
90 | GGGATTGA | -0.205
91 | AAATCTAA | -0.16
92 | AGTTTTGA | -0.0786
93 | CGGTATAC | 0.36
94 | GGTATGCA | -0.00862
95 | GGCTCGAC | -0.201
96 | GCCTCACC | -0.123
97 | CAGTATGC | -0.154
98 | TATCTCGA | 0.0274
99 | AGTGTAAA | 0.0185
100 | CGCTTGGA | -0.0625

Row | Sequence | PBM E-score
101 | AGAGGCCT | -0.0685
102 | ATCGATGG | 0.111
103 | AAGGTTGC | -0.298
104 | GTGCCAGA | -0.18
105 | AAAGAGCA | 0.0939
106 | GTTGCTCA | 0.0744
107 | GAGTTTCC | -0.128
108 | CGGGACAG | 0.148
109 | AGCGCCAA | -0.318
110 | GTTACCAA | 0.138
111 | ACAGAGTC | 0.0223
112 | ACTCACCT | -0.23
113 | GTACGAAA | 0.442
114 | ACTCTAGG | -0.216
115 | GAACTATA | 0.0178
116 | CCGAGAGA | -0.033
117 | CGGACAGC | -0.0574
118 | ACGCGCGA | 0.0863
119 | AACTCATA | -0.0872
120 | AGTTATAT | -0.0435
121 | AAAGGGTA | 0.0132
122 | AAGCGCCC | -0.053
123 | CGAGTCTA | -0.0853
124 | TCAAATCA | -0.148
125 | CAAGGGGA | -0.0435

Row | Sequence | PBM E-score
126 | GAACATTA | 0.00646
127 | ATTGCCTG | -0.0772
128 | AGGGCCTG | -0.119
129 | CCATCACA | -0.181
130 | AACTGATG | -0.119
131 | CACGGATG | -0.019
132 | AGTATTAG | -0.124
133 | AGCAACCA | -0.15
134 | CGGTGACC | -0.223
135 | AAATCGGC | -0.0758
136 | AAAAACCT | -0.0504
137 | CTGCCCGA | -0.25
138 | ATTGCTCG | 0.103
139 | CCGTCTAC | 0.114
140 | CTTTCAAA | 0.134
141 | CACGCCTC | -0.122
142 | CCGAGGCA | -0.0905
143 | AAACGGAT | 0.37
144 | GCACTTAA | 0.147
145 | GCCGAATA | 0.135
146 | ACCTGACT | 0.03
147 | AACTATAG | -0.174
148 | GGTGCACC | -0.0857
149 | CAGAATCA | -0.0386
150 | CTCGACCA | -0.0774

Row | Sequence | PBM E-score
151 | CCATGCGC | -0.175
152 | AATTGGAC | 0.0636
153 | ACGCAGTC | 0.00091
154 | GGCTACGA | 0.363
155 | AGGACCCA | -0.292
156 | CATCATCC | -0.12
157 | AATGTACA | 0.133
158 | CCTAGTAA | -0.332
159 | CTTAATCC | -0.217
160 | CATCGGTA | 0.133
161 | GCAGTCCC | -0.314
162 | GGGGTGAA | -0.357
163 | GTTCTTAA | 0.0333
164 | CTTTCTGC | -0.111
165 | GTCATAGA | -0.134
166 | CCGTGAAG | -0.0728
167 | ATTGGTGG | -0.132
168 | ACGTACAT | 0.287
169 | CACGTTTA | 0.363
170 | CTCACCTA | -0.0848
171 | GGTGTGCA | -0.207
172 | TACTCCTA | -0.122
173 | GTGAACCA | -0.0384
174 | CTAGTTCC | 0.0645
175 | CTCCAAAC | 0.123

Row | Sequence | PBM E-score
176 | CCGGTCCA | -0.266
177 | AGCTTAGG | -0.263
178 | ACCTAGAC | -0.0829
179 | CAGGTCCG | -0.127
180 | AGTAGGTC | 0.145
181 | AGGTCCCA | -0.283
182 | CCAGGTGC | -0.163
183 | AGTAGGAA | -0.18
184 | CGGGGGAA | -0.279
185 | AAATAAAG | -0.073
186 | TCACTAAA | 0.107
187 | AGCACAGG | -0.233
188 | CGACTAAA | 0.0471
189 | ATCACGAA | -0.00187
190 | AGAACTGC | 0.144
191 | GACAGTTA | 0.0255
192 | AGATCACG | -0.0226
193 | TCCGCGAA | 0.0465
194 | AATTGTAG | 0.0473
195 | CCGCGAAG | -0.172
196 | AAAAGCGG | -0.153
197 | CGACGCCA | -0.027
198 | AGTGTCCA | -0.011
199 | ACCTCGAT | 0.108
200 | AAGACAGG | -0.0117

Row | Sequence | PBM E-score
201 | GAGAGTCC | -0.0796
202 | CTTTATGA | -0.28
203 | ATCGTTAG | 0.239
204 | AATCGAGA | 0.0715
205 | AACCTGCT | -0.0408
206 | CCGCGCTC | -0.00583
207 | CATTTACG | 0.345
208 | GGTCTTTA | -0.0788
209 | ATGCGAAC | 0.266
210 | TGAAGCAA | -0.295
211 | CCTGACTA | -0.0277
212 | ATAATCTC | -0.00921
213 | ATGCCTAC | -0.234
214 | GTTTGTCA | 0.0304
215 | AGAATTAG | -0.0263
216 | ACAAGACA | 0.0347
217 | ACCGATAC | 0.35
218 | AGGGGCAG | -0.223
219 | AAAAGCAA | 0.046
